# Among all 370,000 compounds or so, about 150 (0.041%) were called active. This list was built around the results that the source calls inconclusive (neither active nor inactive); the mix of calls is not that of the screen. Calls follow the shape of the dose curve; as a rule, active = well fitted inhibition curve with a large enough effect; inconclusive = small, poorly fitted or top-dose-only effect; inactive = flat fitted curve, though single readings scatter. No potency is given beside an inconclusive call; the fits are too rough.
# Target: Beta-lactamase (Escherichia coli (strain K12)) (UniProt P00811)
# Chain of UniProt P00811 (P00811 whole entry, looked up): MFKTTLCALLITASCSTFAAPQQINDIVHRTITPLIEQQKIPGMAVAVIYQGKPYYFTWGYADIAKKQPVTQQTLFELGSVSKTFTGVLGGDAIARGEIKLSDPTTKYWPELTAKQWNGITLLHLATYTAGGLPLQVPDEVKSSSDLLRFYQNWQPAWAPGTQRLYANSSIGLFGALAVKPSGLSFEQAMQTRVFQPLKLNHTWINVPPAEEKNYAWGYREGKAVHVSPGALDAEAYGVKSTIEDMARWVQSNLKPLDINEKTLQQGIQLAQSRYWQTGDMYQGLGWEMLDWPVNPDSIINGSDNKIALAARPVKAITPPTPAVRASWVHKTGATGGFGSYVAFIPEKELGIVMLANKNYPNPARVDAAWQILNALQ
# Test: qHTS Inhibitors of AmpC Beta-Lactamase (assay with detergent); also: nearly all actives have a fitted effect of over 25% in size
# Conditions: AmpC hydrolysis of nitrocefin, absorbance 480 nm, 0.01% Triton; series mostly up to 114 µM
# How it was run: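 20 mM phosphate pH 7.0 + 0.01% (detergent screen) or 0.0001% Triton X-100; 5.3 nM AmpC reagent; cpd preinc 15 min RT; nitrocefin (800 uM stock) to start; A480 q20 s × 4 min; Activity was normalised to no-enzyme and no-compound control wells.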
# Potency is read from the fitted curve at half-maximal effect; tags tell the direction and shape of the fitted curve.
row,SMILES,Potency
1,COc1ccccc1NC(=O)C(CC=C(Cl)Cl)C(C)=O (stereo not drawn),inactive
2,Cn1nccc1C(=O)NC1CC(C)(C)Cc2c1cnn2-c1ccc(F)cc1 (stereo not drawn),"inconclusive [inhibitor, full curve, poor fit]"
3,CC(=O)Nc1nc(=S)ss1,"inconclusive [inhibitor, partial curve]"
4,CCn1cc(C(=O)Nc2ccc(OC)c(OC)c2)c2cc(OC)c(OC)cc2c1=O,"inconclusive [inhibitor, single point]"
5,CN(C)c1ccc(C=Nc2ccccc2)cc1,"inconclusive [inhibitor, partial curve]"
6,CCOc1ccc(OCCCCN(C)C)cc1,"inconclusive [inhibitor, full curve, poor fit]"
7,CCCCNC(=S)Nc1ccc(OC)nc1,"inconclusive [inhibitor, full curve, poor fit]"
8,Cc1noc(C)c1C(=O)N(C)CC(=O)Nc1ccc(F)c(F)c1F,"inconclusive [inhibitor, partial curve]"
9,COc1ccc(CNC(=O)COC(=O)c2c[nH]c(=O)[nH]c2=O)cc1OC,"inconclusive [inhibitor, partial curve]"
10,O=C(CSc1nc2c(cnn2-c2ccc(F)cc2)c(=O)[nH]1)N1N=C(c2cccs2)CC1c1ccc(F)cc1 (stereo not drawn),"inconclusive [inhibitor, full curve, poor fit]"
11,Cn1c(SCC(=O)NCC2CCCO2)nc2c([nH]c3ccccc32)c1=O (stereo not drawn),"inconclusive [inhibitor, partial curve]"
12,COc1ccc(Cl)cc1NC(=O)CN(C)C(=O)c1sc2ccccc2c1Cl,inactive
13,O=C(COc1ccc(-c2ccccc2)cc1)N1CCN(C(=O)c2cccs2)CC1,inactive
14,O=C(CN1C(=O)c2ccccc2S1(=O)=O)c1ccc(F)cc1,inactive
15,CCCN(CC(=O)Nc1ccccc1C)C(=O)c1ccc(-c2ccc(C(C)=O)cc2)o1,"inconclusive [inhibitor, full curve, poor fit]"
16,CCc1ccccc1NS(=O)(=O)c1cc2c(cc1C)n(C)c(=O)c(=O)n2C,"inconclusive [inhibitor, partial curve]"
17,CCOC(=O)CNC(=O)c1cc(OC)cc(OC)c1,"inconclusive [inhibitor, single point]"
18,CC1(C)C2CCC1(C)C(NC(=O)CCN1CCCCC1)C2 (stereo not drawn),"inconclusive [inhibitor, single point]"
19,Cc1ccc2c(=O)c(C(=O)NCc3cccs3)c[nH]c2c1,inactive
20,CC(C(=O)NCCS(=O)(=O)c1ccc(Cl)cc1)S(=O)(=O)c1ccccc1 (stereo not drawn),"inconclusive [inhibitor, full curve, poor fit]"
21,CSCCC(NS(=O)(=O)c1ccccc1)C(=O)OCc1nc2ccsc2c(=O)[nH]1 (stereo not drawn),"inconclusive [inhibitor, full curve, poor fit]"
22,O=C(Nc1ccc(Cl)cc1)Nn1cnc2ccccc2c1=O,inactive

row,SMILES,Potency
1,COC(=O)CCNC(=O)Cc1ccc(S(=O)(=O)N2CCCCC2)s1,"inconclusive [inhibitor, partial curve, poor fit]"
2,O=C(O)COc1ccc(Br)cc1/C=C1/SC(=O)N(CC(=O)N2CCCC2)C1=O,"inconclusive [inhibitor, partial curve]"
3,Cc1ccc2oc(=O)c3cnn(CC(=O)N(CCC(C)C)Cc4ccco4)c3c2c1,"inconclusive [inhibitor, full curve, poor fit]"
4,CCOc1ccccc1N1Cc2cc(C)c(C)cc2C1,"inconclusive [inhibitor, full curve, poor fit]"
5,COc1ccc(CCNC(=O)Cn2c([N+](=O)[O-])cnc2C)cc1OC,inactive
6,COc1ccc(OC)c(NC(=O)Nc2cccc(Cn3cccn3)c2)c1,"inconclusive [inhibitor, single point]"
7,Cc1nn(-c2ccccc2Cl)c(Cl)c1/C=N/Nc1nc2ccccc2s1,"inconclusive [inhibitor, full curve]"
8,Cc1conc1NC(c1cccs1)c1ccc2cccnc2c1O (stereo not drawn),"inconclusive [inhibitor, full curve, poor fit]"
9,CCOc1ccc(S(=O)(=O)N2CCOCC2)cc1NC(=O)Cc1c(F)cccc1Cl,"inconclusive [inhibitor, partial curve, poor fit]"
10,Cc1ccc2nc(-c3ccccn3)cc(C(=O)N3CCN(c4ncccn4)CC3)c2c1,inactive
11,Cc1cccc(C(=O)Nc2nnc(-c3ccco3)o2)c1,"inconclusive [inhibitor, full curve, poor fit]"
12,Cc1ccc(S(=O)(=O)N2CC=C(C(=O)NCc3ccccc3)CC2)cc1,"inconclusive [inhibitor, full curve, poor fit]"
13,c1nc2sc3c(c2c2nnnn12)CCC3,"inconclusive [inhibitor, full curve]"
14,O=C(O)c1c(NC(=O)c2cccc3ccccc23)sc2c1CCC2,inactive
15,CCC(=O)OCCn1c(=O)c2ccccc2c2ccccc2c1=O,"inconclusive [inhibitor, full curve, poor fit]"
16,Cn1nc(C(=O)NCc2ccccc2CN2CCCC2)c2ccccc2c1=O,"inconclusive [inhibitor, partial curve, poor fit]"
17,Cc1ccc(CSCC(=O)N(C)CC(=O)Nc2ccc(C)cc2)cc1,"inconclusive [inhibitor, full curve]"
18,COC(=O)C1C(=O)c2c([nH]c(C(=O)OC3CCCC3)c2C)CC1C (stereo not drawn),inactive
19,COCCOC(=O)c1c(C)oc2ccc(OS(C)(=O)=O)cc12,inactive
20,COc1cc(Cl)c(C)cc1NC(=O)Cc1cccs1,"inconclusive [inhibitor, partial curve, poor fit]"
21,O=C(NC(N1CCCCCC1)C(Cl)(Cl)Cl)c1ccccc1Cl (stereo not drawn),"inconclusive [inhibitor, partial curve, poor fit]"

# Source: PubChem BioAssay AID485294 (National Center for Advancing Translational Sciences (NCATS), 2010)
